Results from the supplement of paper PMC12217912.
The other results are listed elsewhere or left out. Sequences were assembled here from the parent chain. Inactive controls read about 0.05.

B1: TEV protease; numbered along this chain (parent)
chain: MGESLFKGPRDYNPISSSICHLTNESDGHTTSLYGIGFGPFIITNKHLFRRNNGTLVVQSLHGVFKVKDTTTLQQHLVDGRDMIIIRMPKDFPPFPQKLKFREPQREERICLVTTNFQTKSMSSMVSDTSCTFPSGDGIFWKHWIQTKDGQCGSPLVSTRDGFIVGIHSASNFTNTNNYFTSVPKNFMELLTNQEAQQWVSGWRLNADSVLWGGHKVFMVKPEEPFQPVKEATQL

Variants of: B1
Assay: raw area under fraction-flipped curve 0-4 h after induction (AUC4h, not background-subtracted), DNA-recorder readout of cleavage of the substrate (dimensionless); higher = more cleavage of the substrate by the protease variant
Conditions: temperature: 34 °C; time window: 0-4 h after rhamnose induction
Protocol: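 In vivo DNA recorder in E. coli TOP10(DE3) ΔrhaA at 34 °C. Each TEVp single-site mutant (parent TEVp 0) is paired with a single-site variant of the 7-mer TEVs (canonical ENLYFQ|S). The substrate sits between flexible linkers in a Bxb1-sfGFP-TEVs-SsrA fusion, so cleavage stabilises Bxb1 and speeds flipping of a recombination array, read by NGS. The value is the raw area under the fraction-flipped curve over 0-4 h after rhamnose induction (AUC4h), with ≥20 reads per time point. It is not background-subtracted; inactive controls average about 0.047.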
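Note: Bxb1 expression induced with 0.2% (w/v) L-rhamnose at OD600 near 0.5, cultures sampled hourly, flipped fraction per protease–substrate barcode pair counted by paired-end Illumina sequencing.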

Row | Variant | area with substrate CNLYFQS | area with substrate DNLYFQS | area with substrate HNLYFQS | area with substrate KNLYFQS | area with substrate TNLYFQS | area with substrate FNLYFQS | area with substrate GNLYFQS | area with substrate INLYFQS | area with substrate LNLYFQS | area with substrate NNLYFQS | area with substrate PNLYFQS | area with substrate RNLYFQS | area with substrate WNLYFQS | area with substrate MNLYFQS | area with substrate SNLYFQS | area with substrate VNLYFQS | area with substrate YNLYFQS | area with substrate QNLYFQS
1 | T114K | 0.0801 | 0.0778 | 0.0738 | 0.0772 | 0.0689 | – | – | – | – | – | – | – | – | – | – | – | – | –
2 | T114W | 0.0645 | 0.105 | 0.0721 | 0.078 | – | 0.0528 | 0.0716 | 0.0639 | 0.0646 | 0.0728 | 0.0566 | 0.0829 | 0.0382 | – | – | – | – | –
3 | T115E | 0.0502 | 0.0715 | 0.0718 | 0.0676 | – | 0.0626 | 0.0579 | 0.0393 | 0.0697 | – | 0.061 | – | 0.068 | 0.0692 | 0.0638 | 0.0612 | 0.0719 | –
4 | T115F | 0.062 | 0.0811 | 0.0705 | – | 0.0608 | 0.0669 | – | – | 0.0587 | 0.0778 | 0.0717 | – | 0.0508 | 0.0741 | 0.0595 | – | 0.067 | –
5 | F117R | 0.0507 | 0.0783 | 0.0629 | – | 0.0686 | – | – | – | – | – | – | – | – | – | – | – | – | 0.0674
6 | Q118M | 0.072 | 0.107 | 0.0632 | 0.0622 | – | – | – | – | 0.0747 | – | – | – | 0.046 | – | 0.0634 | 0.0482 | – | –
7 | Q118V | 0.0644 | 0.0484 | 0.0566 | – | – | 0.0697 | – | – | 0.0298 | – | 0.0778 | – | 0.0639 | 0.0833 | – | – | 0.0698 | –
8 | S121G | 0.0609 | 0.0861 | 0.0628 | 0.0642 | 0.0728 | – | 0.0303 | – | – | – | 0.0894 | – | 0.0651 | 0.0809 | – | 0.0651 | 0.075 | 0.0541
9 | S121P | 0.0538 | 0.116 | 0.0689 | 0.0614 | 0.0759 | 0.0371 | 0.0716 | – | – | – | – | – | 0.0586 | 0.0916 | – | 0.0358 | – | 0.0835
10 | M122A | 0.0707 | 0.0825 | 0.0624 | 0.0706 | 0.0578 | – | 0.0765 | 0.0636 | 0.0687 | 0.0493 | 0.0971 | 0.0691 | 0.0798 | – | – | 0.0659 | 0.0573 | 0.099
11 | M122N | 0.0605 | 0.106 | 0.0649 | 0.06 | 0.0776 | 0.0811 | – | 0.112 | 0.0571 | 0.0679 | 0.0755 | – | – | 0.0612 | 0.0605 | – | 0.0548 | –
12 | M122T | 0.0762 | 0.0768 | 0.0622 | 0.0711 | 0.0718 | – | – | 0.0745 | – | 0.0673 | 0.0813 | – | 0.0545 | – | – | – | 0.0616 | –
13 | S123E | 0.0665 | 0.0845 | 0.0705 | 0.067 | 0.061 | – | 0.0584 | 0.0688 | – | 0.0689 | 0.0611 | – | 0.0677 | 0.0615 | 0.0587 | – | – | 0.0361
14 | S123G | 0.066 | 0.0829 | 0.0614 | 0.0588 | 0.072 | – | 0.0814 | 0.0697 | 0.0695 | 0.0729 | 0.0547 | 0.0654 | 0.0629 | 0.006 | 0.0678 | 0.0672 | 0.0485 | 0.0659
15 | S124A | 0.0584 | 0.081 | 0.0777 | 0.0381 | 0.06 | – | – | – | – | – | – | 0.065 | 0.0527 | 0.0643 | – | 0.0715 | 0.0627 | –
16 | S124F | 0.0766 | 0.0936 | 0.0559 | – | 0.0873 | 0.0547 | 0.0705 | 0.0491 | – | 0.0719 | 0.0683 | – | 0.0674 | 0.0733 | 0.0664 | – | – | –
17 | S124I | 0.0686 | 0.0908 | 0.0593 | 0.0835 | – | – | 0.0304 | – | 0.058 | – | 0.0668 | – | – | 0.0441 | 0.0563 | 0.0383 | 0.0672 | –
18 | S124T | 0.061 | 0.0814 | 0.0625 | 0.0673 | 0.0637 | – | 0.0679 | – | 0.0658 | – | 0.0491 | – | 0.0689 | 0.0261 | 0.0727 | – | 0.0643 | 0.0822
19 | M125E | 0.0631 | 0.0895 | 0.0592 | – | 0.0625 | – | – | – | 0.0722 | 0.0442 | 0.0722 | – | 0.0821 | 0.06 | 0.0642 | 0.0597 | 0.0533 | –
20 | M125R | 0.0774 | 0.0794 | 0.0668 | – | 0.0726 | 0.0885 | – | 0.0416 | – | 0.0758 | 0.0725 | – | 0.0455 | 0.0792 | 0.0818 | – | – | –
21 | M125S | 0.0598 | 0.0611 | 0.0712 | – | 0.0096 | – | 0.0572 | 0.0577 | 0.0724 | – | 0.0675 | – | 0.0689 | – | 0.0624 | – | 0.0624 | –
22 | V126E | 0.0545 | 0.0913 | 0.0816 | 0.047 | – | 0.0738 | 0.0734 | – | – | – | 0.0125 | 0.0581 | 0.0688 | 0.0695 | – | 0.0819 | 0.0668 | 0.0773
23 | S127M | 0.0764 | 0.0909 | 0.13 | 0.0652 | 0.0643 | – | 0.0719 | 0.0617 | – | 0.0641 | 0.0744 | – | 0.0572 | – | 0.0648 | – | – | 0.0694
24 | D128V | 0.121 | 0.105 | 0.0756 | – | 0.165 | 0.0667 | – | 0.0893 | 0.0712 | 0.0831 | 0.0751 | 0.0547 | 0.0657 | 0.0516 | – | – | – | –
25 | T129C | 0.055 | 0.0867 | – | 0.0644 | 0.0777 | – | – | 0.0724 | 0.0694 | 0.0728 | – | – | 0.0637 | – | 0.0558 | – | – | –
26 | T129F | 0.0757 | 0.0619 | 0.0564 | 0.0753 | 0.0548 | – | 0.0818 | – | – | 0.0614 | 0.0551 | – | 0.0601 | 0.0679 | 0.0507 | 0.0558 | 0.0617 | 0.0465
27 | T129V | 0.0693 | 0.0896 | 0.0639 | 0.0645 | 0.0681 | – | 0.0878 | 0.0615 | 0.0575 | – | 0.0733 | – | 0.046 | 0.0637 | 0.0474 | – | 0.0553 | 0.0664
28 | S130D | 0.059 | 0.0568 | 0.0562 | 0.108 | 0.0428 | – | – | – | – | – | 0.0681 | – | 0.0599 | 0.0504 | 0.0458 | – | 0.0576 | –
29 | S130I | 0.0656 | 0.161 | 0.0635 | – | 0.0655 | – | 0.0847 | – | – | 0.0781 | 0.0598 | – | 0.0621 | – | – | 0.0643 | 0.0476 | 0.0742
30 | S130P | 0.0322 | 0.082 | 0.0283 | – | 0.0489 | – | 0.0488 | 0.0543 | – | 0.0293 | 0.0486 | – | – | – | – | 0.0347 | – | 0.0396
